Test results taken from publication doi:10.1101/2025.08.08.669391.
A number of entries come with more than one value. They are shown here; other results are not. The source may hold further records. Some entries list several cross-links; each record is another pair of residues.

Target: SPTAN1 (UniProt Q13813)
Experiment: cross-linking mass spectrometry
Details: DSSO, not determined

SPTBN1, sequence (Q01082 whole entry): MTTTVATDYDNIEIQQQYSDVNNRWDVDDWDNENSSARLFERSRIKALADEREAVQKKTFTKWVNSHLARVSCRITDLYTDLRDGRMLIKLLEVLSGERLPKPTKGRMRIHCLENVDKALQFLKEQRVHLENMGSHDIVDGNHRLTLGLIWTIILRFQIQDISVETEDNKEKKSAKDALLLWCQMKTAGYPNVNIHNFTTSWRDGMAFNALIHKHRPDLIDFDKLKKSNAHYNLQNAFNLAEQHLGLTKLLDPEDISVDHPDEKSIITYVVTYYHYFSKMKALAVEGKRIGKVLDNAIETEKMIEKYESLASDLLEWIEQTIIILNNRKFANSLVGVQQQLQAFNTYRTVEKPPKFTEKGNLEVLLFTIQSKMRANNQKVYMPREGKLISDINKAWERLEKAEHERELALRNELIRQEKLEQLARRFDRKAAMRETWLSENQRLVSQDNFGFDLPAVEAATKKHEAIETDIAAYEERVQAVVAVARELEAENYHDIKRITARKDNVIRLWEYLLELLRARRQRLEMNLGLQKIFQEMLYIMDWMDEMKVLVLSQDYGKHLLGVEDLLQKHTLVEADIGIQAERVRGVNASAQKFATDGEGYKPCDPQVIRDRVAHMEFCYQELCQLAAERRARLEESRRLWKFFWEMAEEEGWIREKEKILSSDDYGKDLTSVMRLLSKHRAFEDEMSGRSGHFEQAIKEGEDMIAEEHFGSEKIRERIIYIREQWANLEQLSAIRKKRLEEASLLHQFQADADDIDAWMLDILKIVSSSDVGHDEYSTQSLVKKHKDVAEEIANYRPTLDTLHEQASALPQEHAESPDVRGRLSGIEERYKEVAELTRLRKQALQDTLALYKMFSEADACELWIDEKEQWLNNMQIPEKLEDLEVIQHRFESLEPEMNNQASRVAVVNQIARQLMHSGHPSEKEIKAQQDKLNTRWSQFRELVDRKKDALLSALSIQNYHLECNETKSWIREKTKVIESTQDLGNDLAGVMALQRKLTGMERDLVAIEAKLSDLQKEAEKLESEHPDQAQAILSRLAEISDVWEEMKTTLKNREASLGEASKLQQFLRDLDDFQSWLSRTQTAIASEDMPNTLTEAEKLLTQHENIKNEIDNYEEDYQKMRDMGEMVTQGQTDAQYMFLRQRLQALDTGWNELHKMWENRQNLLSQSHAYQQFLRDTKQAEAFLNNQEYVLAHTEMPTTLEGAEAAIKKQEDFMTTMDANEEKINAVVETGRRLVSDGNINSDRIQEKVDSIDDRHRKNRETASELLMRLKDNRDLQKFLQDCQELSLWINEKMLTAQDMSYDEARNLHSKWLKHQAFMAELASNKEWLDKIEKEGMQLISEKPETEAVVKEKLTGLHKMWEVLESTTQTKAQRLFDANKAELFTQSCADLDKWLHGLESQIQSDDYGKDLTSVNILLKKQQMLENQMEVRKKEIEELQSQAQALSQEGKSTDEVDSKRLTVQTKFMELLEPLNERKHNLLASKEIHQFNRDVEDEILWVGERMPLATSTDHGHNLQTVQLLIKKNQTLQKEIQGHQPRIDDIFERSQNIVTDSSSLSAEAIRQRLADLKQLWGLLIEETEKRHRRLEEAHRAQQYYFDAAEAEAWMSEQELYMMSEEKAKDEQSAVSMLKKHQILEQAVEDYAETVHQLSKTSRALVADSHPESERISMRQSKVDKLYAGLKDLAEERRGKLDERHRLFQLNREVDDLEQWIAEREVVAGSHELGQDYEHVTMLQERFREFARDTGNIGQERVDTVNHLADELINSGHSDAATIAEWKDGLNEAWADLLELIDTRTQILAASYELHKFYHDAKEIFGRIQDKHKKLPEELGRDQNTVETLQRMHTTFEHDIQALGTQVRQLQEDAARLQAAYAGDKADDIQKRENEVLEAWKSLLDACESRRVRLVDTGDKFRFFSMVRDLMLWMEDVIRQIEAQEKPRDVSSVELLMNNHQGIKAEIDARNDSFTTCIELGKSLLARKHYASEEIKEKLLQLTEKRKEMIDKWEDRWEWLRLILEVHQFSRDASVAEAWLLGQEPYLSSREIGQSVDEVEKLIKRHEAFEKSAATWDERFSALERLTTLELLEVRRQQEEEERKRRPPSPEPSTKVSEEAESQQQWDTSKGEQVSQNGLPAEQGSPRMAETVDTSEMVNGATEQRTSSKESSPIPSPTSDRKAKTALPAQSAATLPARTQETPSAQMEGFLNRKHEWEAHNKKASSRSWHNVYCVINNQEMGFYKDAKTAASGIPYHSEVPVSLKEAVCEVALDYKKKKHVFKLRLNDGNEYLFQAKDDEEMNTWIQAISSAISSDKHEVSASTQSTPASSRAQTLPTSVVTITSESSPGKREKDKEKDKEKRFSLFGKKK

Substance: SPTBN1, Q01082
- cross-linked residues: K997 - K1646 and K1249 - K1369 and K2054 - K441
